# Laboratory results from PubChem BioAssay (Tox21).
# Several values for one entry are separate records, joined by “and”; a condition that tells them apart may be missing. Equal entries are not always repeated. The shares of active, inactive and inconclusive entries below differ from those in the screen. For part of these data: Potencies beside an inconclusive call are fits to weak or partial responses and may not hold up. More than one record can exist for a structure, and the calls need not agree. Activity calls are given as the source filed them. Unless noted, the call rests on the fitted dose curve; in most records, active means well fitted curve in the direction sought with a large enough effect in the repeat runs; inconclusive means weak or mixed curves; inactive means no such curve, though single readings can be large; an effect the other way counts as inactive or inconclusive.
# Key:
# [1] = qHTS RealTime-Glo MT Cell Viability Assay in HEK293 cells - 8 hour (AID 1224887); further: nearly all actives have a fitted effect of over 50% in size; further: potency means the concentration at half of the fitted maximal effect; on activity change, negative = cytotoxicity: top concentration of the series differs between compounds; on the % scale 0 is the no-effect control and ±100 the full control effect
# In short: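 Luminescence readout at each listed time point; HEK293, 600 cells/well, RealTime-Glo MT reagent added with cells; compounds pinned (23 nL in DMSO) after 5 h at 37 C; continuous culture at 37 C.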
# [2] = qHTS assay to identify small molecule antagonists of the estrogen receptor beta (ER-beta) signaling pathway - cell viability counter screen (AID 1259382); further: potency means the concentration at half of the fitted maximal effect; nearly all actives have a fitted effect of over 55% in size
# In short: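 Luminescent ATP read-out (CellTiter-Glo, 30 min, RT) taken in the same wells as the bla reporter assay. HEK293T ER-beta-UAS-bla cells in 2% charcoal-stripped FBS were exposed to compounds with 1nM E2 for 16 hr at 37C.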
# [3] = target: Thyrotropin receptor (Homo sapiens) (UniProt P16473); experiment: qHTS assay to identify small molecule antagonists of the thyroid stimulating hormone receptor (TSHR) signaling pathway (AID 1259385; calls by dose curve; further: on the % scale 0 is the no-effect control and ±100 the full control effect; nearly all actives have a fitted effect of over 20% in size); conditions: TSHR-HEK293 cAMP HTRF, TSH-stimulated antagonist mode; activity change, negative = inhibition: at 92.4 µM (top of the series)
# UniProt P16473, sequence (P16473 whole entry, looked up): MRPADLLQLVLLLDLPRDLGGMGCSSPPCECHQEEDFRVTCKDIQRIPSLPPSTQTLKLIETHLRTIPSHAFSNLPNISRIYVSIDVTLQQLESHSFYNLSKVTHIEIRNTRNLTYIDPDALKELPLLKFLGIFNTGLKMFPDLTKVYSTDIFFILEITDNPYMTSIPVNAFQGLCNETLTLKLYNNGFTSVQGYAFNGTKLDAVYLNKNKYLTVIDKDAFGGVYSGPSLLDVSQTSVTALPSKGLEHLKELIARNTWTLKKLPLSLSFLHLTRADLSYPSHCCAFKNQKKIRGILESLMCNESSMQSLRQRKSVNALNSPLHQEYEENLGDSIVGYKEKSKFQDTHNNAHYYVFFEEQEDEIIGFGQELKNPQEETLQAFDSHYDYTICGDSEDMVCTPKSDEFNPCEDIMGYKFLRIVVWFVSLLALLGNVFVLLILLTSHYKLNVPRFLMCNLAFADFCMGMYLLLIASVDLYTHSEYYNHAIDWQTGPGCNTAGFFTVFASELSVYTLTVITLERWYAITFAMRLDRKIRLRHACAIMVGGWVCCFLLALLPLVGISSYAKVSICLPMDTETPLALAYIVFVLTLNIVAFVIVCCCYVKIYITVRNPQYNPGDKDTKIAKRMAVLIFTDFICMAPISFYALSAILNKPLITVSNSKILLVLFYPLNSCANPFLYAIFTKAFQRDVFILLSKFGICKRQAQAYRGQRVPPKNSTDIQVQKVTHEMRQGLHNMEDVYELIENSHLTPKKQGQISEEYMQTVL
# In short: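 TSHR-HEK293 cells (800/well) plated 18 h, then compounds with Ro20-1724 and TSH at 1.5 ng/mL final, 30 min at room temperature. cAMP quantified by HTRF (cAMP-d2/anti-cAMP-cryptate, 1 h); 15 concentrations in triplicate.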
# [4] = Human pregnane X receptor (PXR) small molecule agonists, qHTS cell viability counter screen (AID 1346977); further: nearly all actives have a fitted effect of over 50% in size; further: potency means the concentration at half of the fitted maximal effect
# In short: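 HepG2 cells stably carrying the PXR-Luc reporter are cultured with 5% charcoal-stripped FBS and treated with compounds for 24hr. CellTiter-Fluor is added at 23hr and fluorescence is read after 1hr.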
# [5] = Caspase-3/7 induction in HepG2 cells by small molecules, qHTS cell viability counter screen (AID 1346981); further: potency means the concentration at half of the fitted maximal effect; nearly all actives have a fitted effect of over 30% in size
# In short: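 Fluorescence read-out of live-cell protease activity (CellTiter-Fluor) after 1 hr with reagent. This was measured in the same wells as the caspase-3/7 luminescence, on HepG2 cells exposed to DMSO-dissolved compounds for 16 hr at 37 C.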
# [6] = target: Nuclear receptor subfamily 1 group I member 3 (Homo sapiens) (UniProt Q14994); experiment: qHTS assay to identify small molecule agonists of the constitutive androstane receptor (CAR) signaling pathway (AID 1224839); further: nearly all actives have a fitted effect of over 15% in size; further: potency means the concentration at half of the fitted maximal effect
# UniProt Q14994, sequence (Q14994 whole entry, looked up): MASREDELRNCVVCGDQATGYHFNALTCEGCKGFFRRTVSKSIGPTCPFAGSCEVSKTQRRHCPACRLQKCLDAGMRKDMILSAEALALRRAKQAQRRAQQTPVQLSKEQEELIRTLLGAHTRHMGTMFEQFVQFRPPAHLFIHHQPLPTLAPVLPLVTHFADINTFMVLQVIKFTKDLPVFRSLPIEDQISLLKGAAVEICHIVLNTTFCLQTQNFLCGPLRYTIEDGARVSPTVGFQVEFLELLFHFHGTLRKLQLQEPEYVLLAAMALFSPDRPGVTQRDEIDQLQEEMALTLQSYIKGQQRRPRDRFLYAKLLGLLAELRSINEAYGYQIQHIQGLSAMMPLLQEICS
# In short: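 Stable hCAR/CYP2B6-2.2kb HepG2 line in DMEM with 10% FBS; compounds (15 concentrations) and 0.75 uM PK11195 final, 24 h at 37 C/5% CO2, then ONE-Glo luminescence after 30 min.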
# [7] = qHTS assay to identify small molecule agonists of the sonic hedgehog signaling (Shh) pathway - cell viability counter screen (AID 1259366); further: nearly all actives have a fitted effect of over 50% in size; further: potency means the concentration at half of the fitted maximal effect; on viability change, negative = cytotoxic: on the % scale 0 is the no-effect control and ±100 the full control effect
# In short: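 Stable Gli1-Luc NIH/3T3 clone, 2,000 cells/well. Compound exposure 24hr at 37C. Read-out: CellTiter-Fluor fluorescence.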
# [8] = target: Nuclear receptor ROR-gamma (Homo sapiens) (UniProt P51449); experiment: qHTS assay to identify small molecule antagonists of the retinoid-related orphan receptor gamma (ROR-gamma) signaling pathway (AID 1159521; further: nearly all actives have a fitted effect of over 50% in size; further: potency means the concentration at half of the fitted maximal effect;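 on activity change, negative = inhibition: CHO cells with doxycycline inducible ROR-gamma driving an RORE luciferase reporter; top concentration of the series differs between compounds; on the % scale 0 is the no-effect control and ±100 the full control effect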)
# In short: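 Readout: ONE-Glo luciferase luminescence, 30 min at room temperature. System: Tet-on RORγ CHO, RORE-LUC. Sequence: compound 2 h, doxycycline 1 uM final, 16 h at 37 C.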
# [9] = qHTS assay to identify small molecule antagonists of the estrogen related receptor signaling pathway with the pleiotropic PPARgamma coactivator (PGC) from Tox21 10K library (AID 1224841; call rule not given here; further: potency means the concentration at half of the fitted maximal effect)
# In short: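 Luminescence read-out (One-Glo luciferase reagent, 30 min at room temperature) from PGC/ERR cells exposed to DMSO-dissolved test compounds for 18 h at 37 C; cells, 2,000 per well, had been preincubated 6 h before compound transfer.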
# [10] = qHTS assay to identify small molecule antagonists of the sonic hedgehog signaling (Shh) pathway - cell viability counter screen (AID 1259367); further: nearly all actives have a fitted effect of over 55% in size; further: potency means the concentration at half of the fitted maximal effect
# In short: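 Tox21 library chemicals were tested on a Gli1-Luc NIH/3T3 clone (2,000 cells/well) stimulated by conditioned medium; viability was quantified as fluorescence from CellTiter-Fluor reagent added at 23 hr.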
# [11] = target: Peroxisome proliferator-activated receptor gamma (Homo sapiens) (UniProt P37231); experiment: qHTS assay to identify small molecule agonists of the peroxisome proliferator-activated receptor gamma (PPARg) signaling pathway (AID 743094; active means well fitted activation curve with a large enough effect in the signal ratio in the repeat runs, not every such curve was filed as active; inconclusive means weak or mixed curves, or effect the other way; inactive means no such curve, though single readings can be large or run the other way; the % refers to the signal ratio; further: on the % scale 0 is the no-effect control and ±100 the full control effect); conditions: HEK293H PPARg-UAS-bla, beta-lactamase FRET ratio, 17 h; activation: at 57 µM (top of the series) unless noted
# UniProt P37231, sequence (P37231 whole entry, looked up): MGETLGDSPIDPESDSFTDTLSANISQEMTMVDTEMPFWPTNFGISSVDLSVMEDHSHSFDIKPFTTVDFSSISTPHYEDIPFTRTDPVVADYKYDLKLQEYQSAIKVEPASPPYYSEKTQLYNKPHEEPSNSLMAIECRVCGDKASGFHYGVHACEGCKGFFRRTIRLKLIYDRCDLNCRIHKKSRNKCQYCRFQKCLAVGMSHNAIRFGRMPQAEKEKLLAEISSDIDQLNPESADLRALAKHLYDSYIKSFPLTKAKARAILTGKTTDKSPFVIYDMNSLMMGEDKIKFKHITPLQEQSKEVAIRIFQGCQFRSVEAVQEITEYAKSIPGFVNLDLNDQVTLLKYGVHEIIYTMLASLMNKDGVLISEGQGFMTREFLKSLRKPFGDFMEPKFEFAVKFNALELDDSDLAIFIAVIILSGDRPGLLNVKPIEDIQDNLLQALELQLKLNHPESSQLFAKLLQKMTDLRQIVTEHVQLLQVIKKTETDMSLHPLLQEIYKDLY
# In short: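 HEK293H PPARg-bla cells, 5 h settle at 37C/5% CO2; compound (DMSO) 17 h, 37C; B/G FRET substrate 1 h RT; fluorescence intensity read-out. qHTS format.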
# [12] = qHTS assay for identifying genotoxic compounds that show differential cytotoxicity against isogenic chicken DT40 cell lines with known DNA damage response pathways - Rad54/Ku70 mutant cell line (AID 743015); conditions: DT40 Rad54/Ku70 mutant viability, CellTiter-Glo, 40 h; activity change, negative = cytotoxicity: at 66.8 µM (top of the series); further: nearly all actives have a fitted effect of over 60% in size; further: potency means the concentration at half of the fitted maximal effect
# [13] = qHTS assay to identify aromatase inhibitors - cell viability counter screen (AID 743084); conditions: MCF-7 aro ERE viability, CellTiter-Fluor, 24 h; activity change, negative = cytotoxicity: at 70.3 µM (top of the series);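 further: cells stimulated with testosterone during compound exposure; potency means the concentration at half of the fitted maximal effect; nearly all actives have a fitted effect of over 55% in size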
# [14] = qHTS assay to identify small molecule agonists of the peroxisome proliferator-activated receptor delta (PPARd) signaling pathway - cell viability counter screen (AID 743211); conditions: PPARd-bla HEK293H viability, CellTiter-Glo luminescence, 17 h; activity change, negative = cytotoxicity: at 62.6 µM (top of the series); further: potency means the concentration at half of the fitted maximal effect; nearly all actives have a fitted effect of over 55% in size
# In short: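 Multiplexed format: after the 2 h room-temperature LiveBLAzer B/G FRET step, CellTiter-Glo was added to the same wells. Luminescence after 30 min gave cell viability; compound exposure was 17 h at 37C.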
# [15] = A CellTox Green Cytotoxicity Assay to monitor cytotoxicity in HEK293 cells - 40 hour (AID 1224871); further: potency means the concentration at half of the fitted maximal effect; nearly all actives have a fitted effect of over 45% in size
# In short: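 Read-out: fluorescence of a cell-impermeant cyanine dye staining DNA of dead cells, proportional to cytotoxicity. HEK293, 600 cells/well with reagent, compound (23 nL DMSO) added after 5 h; reads at 0, 8, 16, 24, 32, 40 h.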
# [16] = A CellTox Green Cytotoxicity Assay to monitor cytotoxicity in HepG2 cells - 40 hour (AID 1224879); further: nearly all actives have a fitted effect of over 40% in size; further: potency means the concentration at half of the fitted maximal effect
# In short: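 HepG2, 600 cells/well premixed w/ CellTox Green; 5 h settle, 37 C/5% CO2; pintool cpd add (DMSO); 37 C, 40 h; fluorescence read at 0, 8, 16, 24, 32, 40 h.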
# [17] = qHTS assay to identify small molecule antagonists of the peroxisome proliferator-activated receptor gamma (PPARg) signaling pathway - cell viability counter screen (AID 743194); conditions: PPARg-bla HEK293H viability, CellTiter-Glo luminescence, 17 h; Potency: co-treated with 50 nM rosiglitazone unless noted; activity change, negative = cytotoxicity: at 62.6 µM (top of the series), co-treated with 50 nM rosiglitazone unless noted
# In short: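 Cytotoxicity counter screen in PPARg-bla HEK293H cells, same wells as reporter assay. Compounds plus 50 nM rosiglitazone (final) for 17 h at 37 C, then viability read by CellTiter-Glo luminescence.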
# [18] = qHTS assay to identify small molecule agonists of the farnesoid-X-receptor (FXR) signaling pathway - cell viability counter screen (AID 743218); conditions: FXR-bla HEK293T viability, CellTiter-Glo luminescence, 16 h; viability change, negative = cytotoxic: at 62.6 µM (top of the series); further: potency means the concentration at half of the fitted maximal effect; nearly all actives have a fitted effect of over 45% in size
# In short: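 Luminescence from CellTiter-Glo, read after 30 min at RT, reports viability of GeneBLAzer FXR-UAS-bla HEK 293T cells treated 16 h with compounds in the wells used for the beta-lactamase reporter.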
# Tags describe the fitted curve by direction and shape.
smiles,measurement,setting,value
C[C@]12CC[C@H](O)C[C@H]1CC[C@@H]1[C@@H]2C[C@@H](O)[C@]2(C)[C@@H](C3=CC(=O)OC3)CC[C@]12O,Potency,[1],inactive
same,Potency,[2],active: 0.77 µM
same,"activity change, negative = inhibition",[3],inconclusive: -14%
same,Potency,[4],"inconclusive: 0.273 µM [cytotoxic, full curve]"
same,Potency,[5],"inconclusive: 1.09 µM [cytotoxic, full curve]"
NC(=O)c1ccc(N)nc1,Potency,[6],"inconclusive: 61.1 µM [activator, partial curve, poor fit]"
same,Potency,[7],inactive
same,Potency,[2],"inconclusive: 68.6 µM [cytotoxic, single point]"
CCOP(=S)(OCC)SCCS(=O)(=O)CC,Potency,[8],inactive
same,Potency,[9],"inconclusive: 54.5 µM [falling, partial curve, poor fit]"
same,Potency,[7],"inconclusive: 21.7 µM [cytotoxic, full curve]"
same,Potency,[10],"inconclusive: 68.6 µM [cytotoxic, single point]"
C[N+]1(CCF)[C@@H]2CC[C@H]1CC(OC(=O)C(O)(c1ccccc1)c1ccccc1)C2 (some centres not stated),Potency,[11],inactive
same,Potency,[8],inactive
same,Potency,[3],inactive
CC[N+]1(CC)CCC(OC(=O)C(O)(c2ccccc2)c2ccccc2)C1 (configuration not stated),Potency,[8],"inconclusive: 3.35 µM [inhibitor, single point]"
O=C(O)[C@H](O)[C@@H](O)C(=O)O,Potency,[12],inactive
same,Potency,[8],inactive
CC1(C(=O)Nc2ccc(O)c(Cl)c2Cl)CCCCC1,Potency,[13],"inconclusive: 61.1 µM [cytotoxic, partial curve, poor fit]"
same,Potency,[14],"inconclusive: 38.9 µM [cytotoxic, partial curve, poor fit]"
same,Potency,[9],"inconclusive: 68.6 µM [falling, single point]"
same,Potency,[15],"inconclusive: 54.9 µM [activator, single point]"
same,Potency,[16],"inconclusive: 49 µM [activator, single point]"
same,Potency,[1],"inconclusive: 54.9 µM [cytotoxic, partial curve, poor fit]"
same,Potency,[7],active: 43.3 µM
same,Potency,[10],active: 43.3 µM
same,Potency,[4],inactive
Cc1ccn2nc(S(=O)(=O)Nc3c(F)cccc3F)nc2n1,Potency,[8],"inconclusive: 0.0969 µM [inhibitor, single point]"
same,Potency,[9],inactive
C[C@H]1[C@@H]2Cc3ccc(O)cc3[C@@]1(C)CCN2C,Potency,[12],"inconclusive: 164 µM [cytotoxic, partial curve, poor fit]"
same,Potency,[8],inactive
same,Potency,[15],"inconclusive: 14.8 µM [activator, partial curve, poor fit]"
same,Potency,[4],inconclusive: 164 µM [cytotoxic]
c1cc[c]([Sb]([c]2ccccc2)[c]2ccccc2)cc1,Potency,[6],active: 15.4 µM
same,Potency,[2],"inconclusive: 77 µM [cytotoxic, single point]"
same,Potency,[3],inactive
ClCc1cccc(Cl)c1,Potency,[7],inactive
OC(Cc1ccccc1Cl)(Cn1cncn1)C1(Cl)CC1 (configuration not stated),Potency,[8],"inconclusive: 54.5 µM [inhibitor, partial curve, poor fit]"
same,Potency,[6],"inconclusive: 54.5 µM [activator, partial curve]"
same,Potency,[15],"inconclusive: 34.7 µM [activator, partial curve, poor fit]"
same,Potency,[16],inactive
same,Potency,[1],"inconclusive: 61.6 µM [cytotoxic, single point]"
same,Potency,[2],"inconclusive: 21.7 µM [cytotoxic, partial curve, poor fit]"
same,Potency,[4],inconclusive: 68.6 µM [cytotoxic]
CC[n+]1c(-c2ccccc2)c2cc(N)ccc2c2ccc(N)cc21,Potency,[12],active: 298 nM and active: 750 nM and active: 85.9 nM
same,Potency,[13],"inconclusive: 26.6 µM [cytotoxic, partial curve]"
same,activation,[11],inconclusive: 5.57% and inconclusive: -18.1%
same,Potency,[17],"inconclusive: 24.4 µM [cytotoxic, partial curve, poor fit] and inconclusive: 9.44 µM [cytotoxic, full curve]"
same,Potency,[14],"inconclusive: 3.76 µM [cytotoxic, full curve]"
same,Potency,[18],"active: 614 nM and inconclusive: 2.11 µM [cytotoxic, full curve, poor fit]"
same,Potency,[6],inactive
same,Potency,[1],"active: 34.5 µM and inconclusive: 26.8 µM [cytotoxic, single point]"
same,Potency,[2],"inconclusive: 1.36 µM [cytotoxic, full curve] and inconclusive: 1.33 µM [cytotoxic, full curve]"
same,Potency,[4],"inconclusive: 23.7 µM [cytotoxic, partial curve]"
CCOP(=S)(OCC)SCS(=O)(=O)CC,Potency,[9],"inconclusive: 0.243 µM [falling, partial curve]"
same,Potency,[1],"inconclusive: 54.9 µM [rising, single point]"
same,Potency,[10],inactive
